The nature of the assay: qHTS Assay for Lipid Storage Modulators (AID 1519). Conditions: Drosophila S3 cells, BODIPY lipid droplet/cell ratio, laser cytometry, cells loaded with oleic acid. A digest of the protocol: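 Cells seeded at 5,000 per well were treated with compounds over a concentration series and loaded with oleic acid (400 uM, as added). Lipid droplet fluorescence (488 nm excitation, 500-530 nm channel) was read by laser-scanning cytometry and normalized to 20 uM Triacsin C.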

Setting [1] is: measured here: cell count channel max response.
Setting [2] is: measured here: cell number channel AC50.
The mark [3] stands for this setting: measured here: lipid (BODIPY) channel AC50.
Setting [4] is: measured here: lipid channel max response.

The results in this text go back to PubChem BioAssay (NCATS).

The structures appear in SMILES notation. The list shows a part of the results. These are further read-outs of the screen, such as a control signal, another cell line or another target. No call is given for them. The list favours compounds with an active or inconclusive main result. Words in brackets tell the shape of the fitted curve; partial curves, single points and poor fits give uncertain potencies.
Tags give direction and shape of the fitted curve.

Take `COc1ccc(-n2c(=O)c(CCc3ccccc3)nc3cncnc32)cc1`: the max response is 33.1% under setting [1] and 43.3% under setting [4]. Further, the AC50 under setting [2] is 3.55 µM [rising, full curve] and the half-maximal activity concentration (AC50) under setting [3] was 3.16 µM [rising, full curve].

Regarding `CC(=O)NCCNc1nc(-c2ccccc2C)nc2ccccc12`, the max response under setting [1] is 29.1% and the max response under setting [4] is 33.4%. For the same compound, the half-maximal activity concentration (AC50) is 1.58 µM [rising, partial curve] under setting [2] and 1.78 µM [rising, partial curve] under setting [3].

`CN(CC[C@@H](Oc1ccc(-c2ccccc2)cc1)c1ccc(F)cc1)CC(=O)O`: the max response by setting is: under setting [1], 72.4%; under setting [4], 98.4%. Further, the half-maximal activity concentration (AC50) was 35.5 µM [rising, single point] under setting [2] and 35.5 µM [rising, partial curve, poor fit] under setting [3].

Turning to `CC(C)Oc1cccc(-n2c(CCc3c[nH]c4ccc(Br)cc34)nc3ccccc3c2=O)c1`, the max response by setting is: under setting [1], 63.4%; under setting [4], 61.8%. The AC50 by setting is: under setting [2], 0.398 µM [rising, full curve, poor fit]; under setting [3], 0.282 µM [rising, full curve, poor fit].

On to `CC(=O)NCCc1c(Cc2ccccc2)[nH]c2ccccc12`, for which the max response reads like this: under setting [1], 75.3%; under setting [4], 99.9%. Moreover, the half-maximal activity concentration (AC50) was 12.6 µM [rising, partial curve, poor fit] under setting [2] and 12.6 µM [rising, partial curve, poor fit] under setting [3].

Take `COc1cccc(-c2ccc3ncnc(N4CCNCC4)c3c2)c1`: the max response under setting [1] was determined as 45.4% and the max response under setting [4] came to 54%. The half-maximal activity concentration (AC50) was 12.6 µM [rising, partial curve, poor fit] under setting [2] and 11.2 µM [rising, partial curve, poor fit] under setting [3].

As to `CCOC(=O)C1=C(C)NC(c2ccccc2)=C(C(=O)OCc2ccc([N+](=O)[O-])cc2)[C@@H]1C#Cc1ccccc1`, the max response was 81.9% under setting [1] and 106% under setting [4]. In addition, the half-maximal activity concentration (AC50) under setting [2] is 4.47 µM [rising, partial curve] and the AC50 under setting [3] was 10 µM [rising, partial curve, poor fit].

In the case of `COc1ccc(CNc2nc(-c3ccc4c(c3)OCO4)nc3ccccc23)c(OC)c1`, the max response reads like this: under setting [1], 28.5%; under setting [4], 35.4%. Further, the concentration at half-maximal activity (AC50) was 0.0794 µM [rising, full curve] under setting [2] and 0.0708 µM [rising, full curve, poor fit] under setting [3].

For the compound `O=S(=O)(c1cccc2cnccc12)N1CCNCC1`, the max response is, setting by setting: under setting [1], 64%; under setting [4], 88.5%. For the same compound, the concentration at half-maximal activity (AC50) runs as follows: under setting [2], 15.8 µM [rising, full curve]; under setting [3], 22.4 µM [rising, partial curve, poor fit].

As for `COCCn1c(=O)c(-c2cccc(C#N)c2)nc2cnc(N3CCNCC3)nc21`, the max response under setting [1] amounted to 6.04% and the max response under setting [4] stood at 9.79%. The concentration at half-maximal activity (AC50) is 3.98 µM [rising, partial curve] under setting [2] and 2.51 µM [rising, partial curve] under setting [3].

Regarding `COc1ccccc1CNc1ccnc(-c2ccccc2Cl)n1`, the max response by setting is: under setting [1], 33.3%; under setting [4], 42.1%. For the same compound, the half-maximal activity concentration (AC50) is 3.16 µM [rising, full curve, poor fit] under setting [2] and 3.16 µM [rising, full curve, poor fit] under setting [3].

Regarding `COc1ccc(-c2oc3ccc(C)cc3c(=O)c2O)cc1OC`, the max response is, setting by setting: under setting [1], 95.2%; under setting [4], 122%. Further, the AC50 is, setting by setting: under setting [2], 7.94 µM [rising, full curve, poor fit]; under setting [3], 17.8 µM [rising, partial curve, poor fit].

On to `COc1cccc(Cn2c(=O)c(-c3cccc(C#N)c3)nc3cnc(N4CCOCC4)nc32)c1`, for which the max response by setting is: under setting [1], 33%; under setting [4], 42%. Moreover, the AC50 under setting [2] is 2.51 µM [rising, partial curve, poor fit] and the AC50 under setting [3] is 1 µM [rising, partial curve].

For `Cn1cccc1C(=O)N1CCC2(CC1)CCN(c1ccccn1)CC2`, the max response runs as follows: under setting [1], 21.4%; under setting [4], 29.5%. The concentration at half-maximal activity (AC50) by setting is: under setting [2], 0.141 µM [rising, partial curve, poor fit]; under setting [3], 0.141 µM [rising, full curve, poor fit].

Regarding `CNc1ccnc(-c2cccc(NS(C)(=O)=O)c2)n1`, the max response by setting is: under setting [1], 33.8%; under setting [4], 37.3%. For the same compound, the AC50 is 1 µM [rising, full curve, poor fit] under setting [2] and 0.891 µM [rising, full curve, poor fit] under setting [3].

`CCCCCC(=O)O[C@@]1(C(C)=O)CCC2C3CCC4=CC(=O)CC[C@@]4(C)C3CC[C@]21C` (stereo partly drawn): the max response under setting [1] came out at 32.9% and the max response under setting [4] is 56.4%. Besides, the half-maximal activity concentration (AC50) reads like this: under setting [2], 31.6 µM [rising, single point]; under setting [3], 39.8 µM [rising, single point].

Regarding `CN(C)c1ncc2nc(-c3ccc(Cl)cc3)c(=O)n(C[C@H]3CCCO3)c2n1`, the max response is, setting by setting: under setting [1], 40.6%; under setting [4], 46.8%. Further, the concentration at half-maximal activity (AC50) reads like this: under setting [2], 1.58 µM [rising, full curve, poor fit]; under setting [3], 1.58 µM [rising, full curve].
